This is one part of the list.
How the values were obtained:
Assay in all cases: glycan array binding signal (z-score within array); higher = stronger binding
Settings in all cases: glycan notation: IUPAC condensed, linker removed
[1] = biological target: Neu5Ac(a2-6)Gal(b1-4)GlcNAc(b1-2)Man(a1-3)[Man(a1-6)]Man(b1-4)GlcNAc(b1-4)GlcNAc
How it was run: (§1)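 The binding signal is a Z-score computed within each array and averaged over linkers. Arrays of the same protein sequence at different concentrations or buffers were also averaged together. Data originate from 3228 arrays in the Consortium for Functional Glycomics database, kept only where the protein sequence was available.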

[2] = biological target: Neu5Ac(a2-6)Gal(b1-4)GlcNAc(b1-2)Man(a1-3)[Neu5Ac(a2-3)Gal(b1-4)GlcNAc(b1-2)Man(a1-6)]Man(b1-4)GlcNAc(b1-4)GlcNAc
How it was run: as §1

[3] = biological target: Neu5Ac(a2-6)Gal(b1-4)GlcNAc(b1-2)Man(a1-3)[Neu5Ac(a2-6)Gal(b1-4)GlcNAc(b1-2)Man(a1-6)]Man(b1-4)GlcNAc(b1-4)GlcNAc
How it was run: as §1

[4] = biological target: Neu5Ac(a2-6)Gal(b1-4)GlcNAc(b1-2)Man(a1-3)[Neu5Ac(a2-6)Gal(b1-4)GlcNAc(b1-2)Man(a1-6)]Man(b1-4)GlcNAc(b1-4)[Fuc(a1-6)]GlcNAc
How it was run: as §1

[5] = biological target: Neu5Ac(a2-6)Gal(b1-4)GlcNAc(b1-2)Man(a1-6)Man(b1-4)GlcNAc(b1-4)GlcNAc
How it was run: as §1

[6] = biological target: Neu5Ac(a2-6)Gal(b1-4)GlcNAc(b1-2)Man(a1-6)[Gal(b1-4)GlcNAc(b1-2)Man(a1-3)]Man(b1-4)GlcNAc(b1-4)GlcNAc
How it was run: as §1

[7] = biological target: Neu5Ac(a2-6)Gal(b1-4)GlcNAc(b1-2)Man(a1-6)[GlcNAc(b1-2)Man(a1-3)]Man(b1-4)GlcNAc(b1-4)GlcNAc
How it was run: as §1

[8] = biological target: Neu5Ac(a2-6)Gal(b1-4)GlcNAc(b1-2)Man(a1-6)[Man(a1-3)]Man(b1-4)GlcNAc(b1-4)GlcNAc
How it was run: as §1

[9] = biological target: Neu5Ac(a2-6)Gal(b1-4)GlcNAc(b1-2)[Neu5Ac(a2-6)Gal(b1-4)GlcNAc(b1-4)]Man(a1-3)[GlcNAc(b1-4)][Neu5Ac(a2-6)Gal(b1-4)GlcNAc(b1-2)[Neu5Ac(a2-6)Gal(b1-4)GlcNAc(b1-6)]Man(a1-6)]Man(b1-4)GlcNAc(b1-4)GlcNAc
How it was run: as §1

[10] = biological target: Neu5Ac(a2-6)Gal(b1-4)GlcNAc(b1-2)[Neu5Ac(a2-6)Gal(b1-4)GlcNAc(b1-4)]Man(a1-3)[GlcNAc(b1-4)][Neu5Ac(a2-6)Gal(b1-4)GlcNAc(b1-4)Man(a1-6)]Man(b1-4)GlcNAc(b1-4)GlcNAc
How it was run: as §1

[11] = biological target: Neu5Ac(a2-6)Gal(b1-4)GlcNAc(b1-2)[Neu5Ac(a2-6)Gal(b1-4)GlcNAc(b1-6)]Man(a1-6)[Neu5Ac(a2-6)Gal(b1-4)GlcNAc(b1-2)Man(a1-3)][GlcNAc(b1-4)]Man(b1-4)GlcNAc(b1-4)GlcNAc
How it was run: as §1

[12] = biological target: Neu5Ac(a2-6)Gal(b1-4)GlcNAc(b1-3)Gal(b1-3)GlcNAc
How it was run: as §1

[13] = biological target: Neu5Ac(a2-6)Gal(b1-4)GlcNAc(b1-3)Gal(b1-4)GlcNAc
How it was run: as §1

[14] = biological target: Neu5Ac(a2-6)Gal(b1-4)GlcNAc(b1-3)Gal(b1-4)GlcNAc(b1-2)Man(a1-3)[Neu5Ac(a2-6)Gal(b1-4)GlcNAc(b1-3)Gal(b1-4)GlcNAc(b1-2)Man(a1-6)]GalNAc
How it was run: as §1

[15] = biological target: Neu5Ac(a2-6)Gal(b1-4)GlcNAc(b1-3)Gal(b1-4)GlcNAc(b1-3)Gal(b1-4)GlcNAc
How it was run: as §1

[16] = biological target: Neu5Ac(a2-6)Gal(b1-4)GlcNAc(b1-3)Gal(b1-4)GlcNAc(b1-3)Gal(b1-4)GlcNAc(b1-2)Man(a1-3)[Neu5Ac(a2-6)Gal(b1-4)GlcNAc(b1-3)Gal(b1-4)GlcNAc(b1-3)Gal(b1-4)GlcNAc(b1-2)Man(a1-6)]GalNAc
How it was run: as §1

[17] = biological target: Neu5Ac(a2-6)Gal(b1-4)GlcNAc(b1-3)Gal(b1-4)GlcNAc(b1-3)GalNAc
How it was run: as §1

[18] = biological target: Neu5Ac(a2-6)Gal(b1-4)GlcNAc(b1-3)Gal(b1-4)GlcNAc(b1-3)[Neu5Ac(a2-6)Gal(b1-4)GlcNAc(b1-3)Gal(b1-4)GlcNAc(b1-6)]GalNAc
How it was run: as §1

[19] = biological target: Neu5Ac(a2-6)Gal(b1-4)GlcNAc(b1-3)Gal(b1-4)GlcNAc(b1-6)[Gal(b1-3)]GalNAc
How it was run: as §1

[20] = biological target: Neu5Ac(a2-6)Gal(b1-4)GlcNAc(b1-3)Gal(b1-4)[Fuc(a1-3)]GlcNAc(b1-3)Gal(b1-4)[Fuc(a1-3)]GlcNAc
How it was run: as §1

[21] = biological target: Neu5Ac(a2-6)Gal(b1-4)GlcNAc(b1-3)GalNAc
How it was run: as §1

[22] = biological target: Neu5Ac(a2-6)Gal(b1-4)GlcNAc(b1-3)[Neu5Ac(a2-6)Gal(b1-4)GlcNAc(b1-6)]GalNAc
How it was run: as §1

[23] = biological target: Neu5Ac(a2-6)Gal(b1-4)GlcNAc(b1-6)GalNAc
How it was run: as §1

[24] = biological target: Neu5Ac(a2-6)Gal(b1-4)GlcNAc(b1-6)[Gal(b1-3)GlcNAc(b1-3)]Gal(b1-4)Glc
How it was run: as §1

[25] = biological target: Neu5Ac(a2-6)Gal(b1-4)GlcNAc(b1-6)[Gal(b1-3)]GalNAc
How it was run: as §1

[26] = biological target: Neu5Ac(a2-6)Gal(b1-4)GlcNAc6S
How it was run: as §1

[27] = biological target: Neu5Ac(a2-6)GalNAc
How it was run: as §1

[28] = biological target: Neu5Ac(a2-6)GalNAc(b1-4)GlcNAc
How it was run: as §1

[29] = biological target: Neu5Ac(a2-6)GalNAc(b1-4)GlcNAc6S
How it was run: as §1

[30] = biological target: Neu5Ac(a2-6)GlcNAc(b1-4)GlcNAc
How it was run: as §1

[31] = biological target: Neu5Ac(a2-6)GlcNAc(b1-4)GlcNAc(b1-4)GlcNAc
How it was run: as §1

B1: MPA (Maclura pomifera), P18674 (protein)
chain: GVTFDDGAYTGIREINFEYNSETAIGGLRVTYDLNGMPFVAEDHKSFITGFKPVKISLEFPSEYIVEVSGYVGKVEGYTVIRSLTFKTNKQTYGPYGVTNGTPFSLPIENGLIVGFKGSIGYWLDYFSIYLSL
For B1, the “glycan array binding signal (z-score)” value [1] was -0.228, the “glycan array binding signal (z-score)” value [2] was -0.227 and the “glycan array binding signal (z-score)” value [3] was -0.188. The “glycan array binding signal (z-score)” value [4] was -0.216, the “glycan array binding signal (z-score)” value [5] was -0.239 and the “glycan array binding signal (z-score)” value [6] was -0.154. For the same binder, the “glycan array binding signal (z-score)” value [7] was -0.173, the “glycan array binding signal (z-score)” value [8] was -0.337 and the “glycan array binding signal (z-score)” value [9] was -0.236. The “glycan array binding signal (z-score)” value [10] was -0.218, the “glycan array binding signal (z-score)” value [11] was -0.375 and the “glycan array binding signal (z-score)” value [12] was -0.29. The “glycan array binding signal (z-score)” value [13] was -0.241, the “glycan array binding signal (z-score)” value [14] was 0.484 and the “glycan array binding signal (z-score)” value [15] was -0.233. The “glycan array binding signal (z-score)” value [16] was 6.71, the “glycan array binding signal (z-score)” value [17] was -0.267 and the “glycan array binding signal (z-score)” value [18] was 1.31. The “glycan array binding signal (z-score)” value [19] was -0.047, the “glycan array binding signal (z-score)” value [20] was 0.054 and the “glycan array binding signal (z-score)” value [21] was -0.115. For the same binder, the “glycan array binding signal (z-score)” value [22] was -0.252, the “glycan array binding signal (z-score)” value [23] was -0.13 and the “glycan array binding signal (z-score)” value [24] was -0.184. The “glycan array binding signal (z-score)” value [25] was 0.018, the “glycan array binding signal (z-score)” value [26] was -0.25 and the “glycan array binding signal (z-score)” value [27] was -0.268. For the same binder, the “glycan array binding signal (z-score)” value [28] was -0.246, the “glycan array binding signal (z-score)” value [29] was -0.275 and the “glycan array binding signal (z-score)” value [30] was -0.39. The “glycan array binding signal (z-score)” value [31] was -0.276.
